# Whole data set: some 81,000 sequences, median “one-hybrid fitness for binding parS DNA” near -0.17, cut for the highest 2% near 0.51. The list shows a part of the results.
# B1: Caulobacter ParB omega fusion; a variant is named by its letters at X, in order, B8GW30 (parent)
# chain: MESVVVGEPGMSEGRRGLGRGLSALLGEVDAAPAQAPGEQLGGSREAPIEILQRNPDQPRRTFREEDLEDLSNSIREKGVLQPILVRPSPDTAGEYQIVAGERAWRAAQRAGLKTVPIMVRELDDLAVLEIGIIENVQRADLNVLEEALSYKVLMEKFERTQENIAQTIGKSXSHVANXMRLLXLPDEVQSYLVSGELTAXHARAIAAAADPVALAKQIIEGGLSVRETEALARKAPNLSAGKSKGGRPPRVKDTDTQALESDLSSVLGLDVSIDHRGSTGTLTITYATLEQLDDLCNRLTRGI
# Variants of: B1
# Test: one-hybrid fitness for binding parS DNA (scaled: cognate 1, non-cognate 0); higher = stronger binding
# Details: with parS DNA site
# Summary of the method: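 Values were rescaled so that cognate is 1 and non-cognate is 0. Each is a fitness, the log change in a variant's read ratio to wild type from Illumina reads of plasmids before and after selection, with three replicate libraries pooled and variants under 10 reads dropped. Selection of the Caulobacter ParB libraries, four specificity codons randomised, used E. coli USO with a HIS3 reporter, site 19 bp from the promoter, on M9-minus-histidine with 0.1 mM IPTG and 5 mM 3-AT for 48 hours at 37°C.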
row,Variant,one-hybrid fitness for binding parS DNA
1,RSFW,≤ 0.2
2,PDCT,≤ 0.2
3,LYWF,≤ 0.2
4,SFVG,≤ 0.2
5,HIAR,≤ 0.2
6,PEFN,≤ 0.2
7,DVHM,≤ 0.2
8,TISQ,≤ 0.2
9,PEHI,≤ 0.2
10,WRAH,≤ 0.2
11,ETPG,≤ 0.2
12,ASFN,≤ 0.2
13,HASN,≤ 0.2
14,PYKS,≤ 0.2
15,PIPF,≤ 0.2
16,DPTF,≤ 0.2
17,AQDE,≤ 0.2
18,RAPL,≤ 0.2
19,LPSK,≤ 0.2
20,MTDY,≤ 0.2
21,SCIC,≤ 0.2
22,HNGS,≤ 0.2
23,DPHR,≤ 0.2
24,CPAC,≤ 0.2

row,Variant,one-hybrid fitness for binding parS DNA
1,EKGY,≤ 0.2
2,QCAY,≤ 0.2
3,PPKW,≤ 0.2
4,WICV,≤ 0.2
5,QTIN,≤ 0.2
6,HTYC,≤ 0.2
7,TPPI,≤ 0.2
8,SLKT,≤ 0.2
9,LQNN,≤ 0.2
10,LAHV,≤ 0.2
11,PCLV,≤ 0.2
12,HLTV,≤ 0.2
13,LQPF,≤ 0.2
14,GREC,≤ 0.2
15,MTYS,≤ 0.2
16,EMVW,≤ 0.2
17,CTML,≤ 0.2
18,ARRS,≤ 0.2
19,INGE,≤ 0.2
20,NIPR,≤ 0.2
21,LLTQ,≤ 0.2
22,WISH,≤ 0.2
23,YNEP,≤ 0.2
24,HATR,≤ 0.2

row,Variant,one-hybrid fitness for binding parS DNA
1,RKIV,≤ 0.2
2,WVST,≤ 0.2
3,SACQ,≤ 0.2
4,VSHQ,≤ 0.2
5,GAID,≤ 0.2
6,KHHR,≤ 0.2
7,CAQR,≤ 0.2
8,SPML,≤ 0.2
9,YIKE,≤ 0.2
10,PMNN,≤ 0.2
11,RWRH,0.223
12,YPVD,≤ 0.2
13,QNVI,≤ 0.2
14,AGNM,≤ 0.2
15,WWTF,≤ 0.2
16,WYYF,≤ 0.2
17,QTMY,≤ 0.2
18,WGRG,≤ 0.2
19,LAPC,≤ 0.2
20,RIFM,0.336
21,RYYG,0.997
22,MYAG,≤ 0.2
23,RVPM,≤ 0.2
24,QHTP,≤ 0.2

row,Variant,one-hybrid fitness for binding parS DNA
1,LLIS,≤ 0.2
2,LCLC,≤ 0.2
3,HVLE,≤ 0.2
4,PSIT,≤ 0.2
5,TDSM,≤ 0.2
6,MIKC,≤ 0.2
7,TFQN,≤ 0.2
8,AVGS,≤ 0.2
9,RQFT,0.759
10,GMYG,≤ 0.2
11,PKTN,≤ 0.2
12,VEAN,≤ 0.2
13,RTEW,≤ 0.2
14,GNTS,≤ 0.2
15,RGGH,≤ 0.2
16,DDLC,≤ 0.2
17,HPGN,≤ 0.2
18,GCAM,≤ 0.2
19,VSRR,≤ 0.2
20,RDHD,≤ 0.2
21,QDII,≤ 0.2
22,RCQF,≤ 0.2
23,TRFS,≤ 0.2
24,WINA,≤ 0.2

row,Variant,one-hybrid fitness for binding parS DNA
1,LPEK,≤ 0.2
2,ALLD,≤ 0.2
3,PAVE,≤ 0.2
4,DPLV,≤ 0.2
5,QRFS,≤ 0.2
6,CERT,≤ 0.2
7,LYRF,≤ 0.2
8,RRRS,0.67
9,PNKE,≤ 0.2
10,SQAR,≤ 0.2
11,WRWI,≤ 0.2
12,HYTH,≤ 0.2
13,KVPK,≤ 0.2
14,PRGY,≤ 0.2
15,SCPW,≤ 0.2
16,RWKC,0.896
17,QQES,≤ 0.2
18,TYRG,≤ 0.2
19,FKGG,≤ 0.2
20,NFSV,≤ 0.2
21,RWGF,≤ 0.2
22,IFNM,≤ 0.2
23,SCSV,≤ 0.2
24,RTER,≤ 0.2

row,Variant,one-hybrid fitness for binding parS DNA
1,ARKA,≤ 0.2
2,PPQR,≤ 0.2
3,GMLC,≤ 0.2
4,AAIH,≤ 0.2
5,PLFI,≤ 0.2
6,ALSS,≤ 0.2
7,THAP,≤ 0.2
8,YNPM,≤ 0.2
9,HPYE,≤ 0.2
10,LLIC,≤ 0.2
11,YVSL,≤ 0.2
12,AHNI,≤ 0.2
13,QSRS,≤ 0.2
14,SGHY,≤ 0.2
15,THAG,≤ 0.2
16,WCNF,≤ 0.2
17,LDCA,≤ 0.2
18,HCST,≤ 0.2
19,SGEM,≤ 0.2
20,CCMC,≤ 0.2
21,VMKT,≤ 0.2
22,SLQW,≤ 0.2
23,AHGG,≤ 0.2
24,NANG,≤ 0.2

row,Variant,one-hybrid fitness for binding parS DNA
1,YESW,≤ 0.2
2,PGAI,≤ 0.2
3,QHPS,≤ 0.2
4,RDRN,≤ 0.2
5,IYNR,≤ 0.2
6,VPMN,≤ 0.2
7,SARL,≤ 0.2
8,NMHG,≤ 0.2
9,HRYM,≤ 0.2
10,KDTY,≤ 0.2
11,WQAG,≤ 0.2
12,RCKP,≤ 0.2
13,MLTM,≤ 0.2
14,TPGS,≤ 0.2
15,YLFC,≤ 0.2
16,QGPE,≤ 0.2
17,MNAG,≤ 0.2
18,MDDG,≤ 0.2
19,LWKC,≤ 0.2
20,TYDK,≤ 0.2
21,MIRR,≤ 0.2
22,GTQP,≤ 0.2
23,HKKH,≤ 0.2
24,NQRV,≤ 0.2

row,Variant,one-hybrid fitness for binding parS DNA
1,SQHF,≤ 0.2
2,VVTC,≤ 0.2
3,RGKA,0.475
4,CCVR,≤ 0.2
5,SLPW,≤ 0.2
6,AYVM,≤ 0.2
7,PVAH,≤ 0.2
8,CKAL,≤ 0.2
9,NHLI,≤ 0.2
10,LVAS,≤ 0.2
11,THFT,≤ 0.2
12,APLT,≤ 0.2
13,VWAG,≤ 0.2
14,RWDT,0.512
15,PGRF,≤ 0.2
16,TIRA,≤ 0.2
17,VPPD,≤ 0.2
18,RNQS,0.921
19,NQMG,≤ 0.2
20,RVCP,≤ 0.2
21,YQMY,≤ 0.2
22,EAYG,≤ 0.2
23,RYWI,≤ 0.2
24,KHRT,≤ 0.2

row,Variant,one-hybrid fitness for binding parS DNA
1,QYES,≤ 0.2
2,PQHS,≤ 0.2
3,APQI,≤ 0.2
4,KLMV,≤ 0.2
5,MRML,≤ 0.2
6,PWPA,≤ 0.2
7,YLST,≤ 0.2
8,FCQR,≤ 0.2
9,DYHV,≤ 0.2
10,WWKS,≤ 0.2
11,GTSW,≤ 0.2
12,IYHY,≤ 0.2
13,KWHT,≤ 0.2
14,GGRC,≤ 0.2
15,AGYK,≤ 0.2
16,KEKL,≤ 0.2
17,FRQS,≤ 0.2
18,RYVH,0.253
19,LHGD,≤ 0.2
20,FALG,≤ 0.2
21,QLWY,≤ 0.2
22,TYAR,≤ 0.2
23,GYSY,≤ 0.2
24,YRPY,≤ 0.2

row,Variant,one-hybrid fitness for binding parS DNA
1,SSFL,≤ 0.2
2,KIAW,≤ 0.2
3,QGED,≤ 0.2
4,GRDV,≤ 0.2
5,SWMT,≤ 0.2
6,VAVT,≤ 0.2
7,ECNS,≤ 0.2
8,WRRL,≤ 0.2
9,YELK,≤ 0.2
10,RFWK,≤ 0.2
11,PNVS,≤ 0.2
12,HWHY,≤ 0.2
13,EPRV,≤ 0.2
14,IKNF,≤ 0.2
15,TYCR,≤ 0.2
16,QAVK,≤ 0.2
17,TLDQ,≤ 0.2
18,HRRA,≤ 0.2
19,FCHC,≤ 0.2
20,IKNK,≤ 0.2
21,CAWK,≤ 0.2
22,MKRG,≤ 0.2
23,HAPY,≤ 0.2
24,YEPR,≤ 0.2

row,Variant,one-hybrid fitness for binding parS DNA
1,NPGV,≤ 0.2
2,AWDM,≤ 0.2
3,ANNR,≤ 0.2
4,GVTC,≤ 0.2
5,LQNV,≤ 0.2
6,DKTS,≤ 0.2
7,FMKG,≤ 0.2
8,LSRK,≤ 0.2
9,QSPT,≤ 0.2
10,PDKV,≤ 0.2
11,PVSW,≤ 0.2
12,TKDG,≤ 0.2
13,GQRF,≤ 0.2
14,EHFC,≤ 0.2
15,HFAR,≤ 0.2
16,PLFL,≤ 0.2
17,HFCA,≤ 0.2
18,LRCS,≤ 0.2
19,CWTM,≤ 0.2
20,KAAP,≤ 0.2
21,LPIW,≤ 0.2
22,ASMG,≤ 0.2
23,TMLC,≤ 0.2
24,RNDP,≤ 0.2

row,Variant,one-hybrid fitness for binding parS DNA
1,NENT,≤ 0.2
2,IKPT,≤ 0.2
3,QSYR,≤ 0.2
4,NAPR,≤ 0.2
5,NPCS,≤ 0.2
6,VSCL,≤ 0.2
7,FFIR,≤ 0.2
8,QVNE,≤ 0.2
9,DVKC,≤ 0.2
10,DLSH,≤ 0.2
11,CRTH,≤ 0.2
12,RGWE,≤ 0.2
13,KLEV,≤ 0.2
14,WTFG,≤ 0.2
15,EAAT,≤ 0.2
16,RGYD,≤ 0.2
17,WTTW,≤ 0.2
18,RRSR,≤ 0.2
19,EPSE,≤ 0.2
20,TEKS,≤ 0.2
21,RPHV,≤ 0.2
22,SALL,≤ 0.2
23,WVYD,≤ 0.2
24,WGQT,≤ 0.2

row,Variant,one-hybrid fitness for binding parS DNA
1,PSYS,≤ 0.2
2,SMSS,≤ 0.2
3,RYYE,≤ 0.2
4,MYSS,≤ 0.2
5,WPYA,≤ 0.2
6,ARIY,≤ 0.2
7,RNIA,0.265
8,TSDT,≤ 0.2
9,PSKD,≤ 0.2
10,RARQ,≤ 0.2
11,ADQE,≤ 0.2
12,ESYG,≤ 0.2
13,RCFS,1.03
14,YNMN,≤ 0.2
15,ESND,≤ 0.2
16,SFTT,≤ 0.2
17,WLVY,≤ 0.2
18,GGQH,≤ 0.2

# From a collection of fitness landscapes (doi:10.1016/j.celrep.2020.107928)
